The values that follow come from the antibiotic and cytotoxicity screens of Wong et al. (2023).

The other results are listed elsewhere or left out.

For the test, the system named is HSkMC (human skeletal muscle cells). Briefly: cytotoxicity call (relative viability < 0.9). The note with it: 10 µM.
As to `CN1C(=O)c2cc(NC(=O)c3cscn3)ccc2OC[C@@H]2O[C@H](CC(=O)N3CCOCC3)CC[C@H]21`, the cytotoxicity call was “inactive”.

`C[C@@H]1CN([C@@H](C)CO)C(=O)c2cccc(NS(=O)(=O)c3ccccc3)c2O[C@H]1CN(C)S(=O)(=O)c1cccs1`: the cytotoxicity call is “inactive”.

Regarding `COc1ccc(S(=O)(=O)Nc2ccc3c(c2)C(=O)N([C@H](C)CO)C[C@@H](C)[C@H](CN(C)Cc2ccccc2)OCCCC[C@H](C)O3)cc1`, the cytotoxicity call is “inactive”.

Consider `COc1ccc(NC(=O)N2C[C@@H](O)COC[C@H]3O[C@H](CC(=O)NC4Cc5ccccc5C4)CC[C@@H]32)cc1`, for which the cytotoxicity call was “inactive”.

Regarding `CC(C)CC#Cc1ccc2c(c1)O[C@@H](CN(C)C(=O)NC1CCCC1)[C@H](C)CN([C@@H](C)CO)S2(=O)=O`, the cytotoxicity call is “inactive”.

Take `C[C@H]1CN([C@@H](C)CO)S(=O)(=O)c2ccc(C#Cc3ccncc3)cc2O[C@@H]1CN(C)S(=O)(=O)c1ccc(F)cc1`: the cytotoxicity call is “active”.

`COc1ccc(S(=O)(=O)N(C)C[C@@H]2Oc3ccc(NS(=O)(=O)c4ccc(C)cc4)cc3C(=O)N([C@H](C)CO)C[C@H]2C)cc1`: the cytotoxicity call was “inactive”.

In the case of `CCCCCCCCCCCCCCCCCCCCCCCCCCCCO`, the cytotoxicity call was “inactive”.

As for `NC(=O)c1ccc[n+](CC(=O)c2ccccc2)c1`, the cytotoxicity call was “inactive”.

On to `C=CCOC(=O)[C@H]1[C@@H]2C(=O)O[C@@H](c3ccccc3)[C@@H](c3ccccc3)N2[C@@H](c2ccc(OCCOC(=O)[C@H]3C[C@H]4C(=O)N[C@@H](CCCC[N+](C)(C)C)C(=O)N4[C@H]3c3ccc(O)cc3)cc2)[C@]12C(=O)Nc1ccc(I)cc12`, for which the cytotoxicity call is “inactive”.

`COc1cccc(-c2ccc3c(c2)O[C@@H](CN(C)C(=O)C2CC2)[C@@H](C)CN([C@H](C)CO)S3(=O)=O)c1`: the cytotoxicity call is “inactive”.

In the case of `COc1ccc(S(=O)(=O)N(C)C[C@@H]2OCCCC[C@H](C)Oc3ccc(NC(=O)C4CCCCC4)cc3C(=O)N([C@H](C)CO)C[C@H]2C)cc1`, the cytotoxicity call is “inactive”.

Turning to `COc1ccc(CNC(=O)C[C@H]2C[C@@H]3c4cc(NS(=O)(=O)c5ccc(F)cc5)ccc4O[C@@H]3[C@H](CO)O2)cc1`, the cytotoxicity call is “inactive”.

For the compound `COc1ccc(CN(C)C[C@H]2Oc3c(NC(=O)Nc4ccc(C(F)(F)F)cc4)cccc3C(=O)N([C@H](C)CO)C[C@@H]2C)cc1`, the cytotoxicity call is “active”.

In the case of `C[C@@H]1CN([C@@H](C)CO)C(=O)c2cc(C#Cc3cccnc3)cnc2O[C@@H]1CN(C)S(=O)(=O)c1ccccc1F`, the cytotoxicity call is “inactive”.

As for `CC[C@@H](C)C(=O)O[C@H]1[C@@H]2CC3=C4CC(=O)O[C@@H](c5ccoc5)[C@]4(C)CC[C@@H]3[C@@](C)(C2=O)[C@@H](CC(=O)OC)C1(C)C`, the cytotoxicity call was “inactive”.

As to `C[C@H]1CCCCO[C@H](CN(C)S(=O)(=O)c2cn(C)cn2)[C@@H](C)CN([C@@H](C)CO)C(=O)c2cc(NC(=O)Nc3ccc(C(F)(F)F)cc3)ccc2O1`, the cytotoxicity call was “inactive”.

In the case of `C[C@H]1CCCCO[C@H](CN(C)C(=O)Nc2ccc(F)cc2)[C@@H](C)CN([C@@H](C)CO)C(=O)c2cc(NC(=O)C3CCCCC3)ccc2O1`, the cytotoxicity call is “inactive”.

For `O=C(Nc1ccc(C(F)(F)F)cc1)Nc1ccc2c(c1)[C@@H]1C[C@H](CC(=O)N3CCc4ccccc4C3)O[C@H](CO)[C@@H]1O2`, the cytotoxicity call was “inactive”.

For `C[C@@H]1CCCCO[C@H](CN(C)C(=O)Nc2ccc(C(F)(F)F)cc2)[C@@H](C)CN([C@@H](C)CO)C(=O)c2cc(NS(=O)(=O)c3ccc(Cl)cc3)ccc2O1`, the cytotoxicity call is “active”.

Turning to `C[C@@H]1CCCCO[C@@H](CN(C)C(=O)CCC(F)(F)F)[C@@H](C)CN([C@H](C)CO)C(=O)c2cc(NC(=O)Nc3ccc(F)cc3)ccc2O1`, the cytotoxicity call is “inactive”.

`C[C@@H]1CN([C@@H](C)CO)C(=O)c2cc(NC(=O)c3ccncc3)ccc2O[C@@H](C)CCCCO[C@@H]1CN(C)S(C)(=O)=O`: the cytotoxicity call is “inactive”.

Consider `COc1ccccc1-c1cnc2c(c1)C(=O)N([C@@H](C)CO)C[C@H](C)[C@@H](CN(C)C(=O)c1ccncc1)O2`, for which the cytotoxicity call was “inactive”.

For `CC(C)CC#Cc1ccc2c(c1)O[C@@H](CN(C)C(=O)C1CCOCC1)[C@@H](C)CN([C@@H](C)CO)S2(=O)=O`, the cytotoxicity call is “inactive”.

With `C[C@H](CO)N1C[C@H](C)[C@H](CN(C)S(=O)(=O)c2ccc(C#N)cc2)Oc2ncc(C#Cc3cccc(F)c3)cc2C1=O`, the cytotoxicity call was “inactive”.

As to `C[C@H]1CN([C@@H](C)CO)C(=O)c2cc(NS(=O)(=O)c3ccccc3)ccc2O[C@H]1CN(C)Cc1ccc(Cl)c(Cl)c1`, the cytotoxicity call was “inactive”.

Turning to `C[C@@H]1CN([C@@H](C)CO)C(=O)c2cc(NC(=O)C3CCCCC3)ccc2O[C@@H](C)CCCCO[C@H]1CN(C)C(=O)C1CCCCC1`, the cytotoxicity call is “inactive”.

For `COc1ccc(NC(=O)Nc2ccc3c(c2)C(=O)N([C@@H](C)CO)C[C@@H](C)[C@@H](CN(C)Cc2ccc4c(c2)OCO4)OCCCC[C@@H](C)O3)cc1`, the cytotoxicity call is “inactive”.

On to `C[C@@H]1CN([C@@H](C)CO)C(=O)Cc2cc(NS(=O)(=O)c3ccccc3)ccc2O[C@H]1CN(C)Cc1ccc(Oc2ccccc2)cc1`, for which the cytotoxicity call is “inactive”.
